Data as given in the supplement of paper PMC3334620.
Whole data set: some 33,000 sequences, median “E-score (-0.5 to 0.5)” near -0.041, cut for the highest 2% near 0.37. The list shows a part of the results.

The sequences below were run against T1, Ecm22 (UniProt Q05958) (assay: PBM E-score (8-mer binding enrichment) (E-score (-0.5 to 0.5)); higher = stronger / more preferred TF binding; most listed sequences are background and not binding sites). Details: protein concentration: 200 nM; construct: GST-full length.
T1 sequence: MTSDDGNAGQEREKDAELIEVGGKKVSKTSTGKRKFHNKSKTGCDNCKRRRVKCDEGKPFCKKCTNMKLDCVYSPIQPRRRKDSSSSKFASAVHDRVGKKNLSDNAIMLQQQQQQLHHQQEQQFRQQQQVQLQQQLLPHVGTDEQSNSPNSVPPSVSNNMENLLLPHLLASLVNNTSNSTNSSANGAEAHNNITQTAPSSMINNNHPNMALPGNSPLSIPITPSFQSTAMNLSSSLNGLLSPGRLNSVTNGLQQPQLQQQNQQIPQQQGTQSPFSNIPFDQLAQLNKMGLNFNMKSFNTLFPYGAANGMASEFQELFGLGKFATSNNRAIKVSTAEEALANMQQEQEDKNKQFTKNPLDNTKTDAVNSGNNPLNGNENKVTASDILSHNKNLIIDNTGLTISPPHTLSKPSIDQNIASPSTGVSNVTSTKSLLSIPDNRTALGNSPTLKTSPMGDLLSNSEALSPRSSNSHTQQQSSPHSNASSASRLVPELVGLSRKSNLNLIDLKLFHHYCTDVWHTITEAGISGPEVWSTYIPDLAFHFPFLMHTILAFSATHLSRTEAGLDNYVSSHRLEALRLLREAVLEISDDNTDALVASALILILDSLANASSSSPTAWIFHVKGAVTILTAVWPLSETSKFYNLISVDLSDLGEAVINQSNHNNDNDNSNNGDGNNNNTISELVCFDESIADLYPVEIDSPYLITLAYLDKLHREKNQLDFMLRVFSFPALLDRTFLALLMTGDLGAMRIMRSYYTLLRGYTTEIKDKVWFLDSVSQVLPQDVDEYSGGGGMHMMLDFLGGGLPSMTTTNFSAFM
Protocol: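 Universal 'all 10-mer' protein binding microarrays (Agilent AMADID 015681) probed with GST-tagged S. cerevisiae TFs (full-length or DBD) made by in vitro transcription/translation (PURExpress), about 100-200 nM. Bound TF was detected with fluorescent anti-GST. Each ungapped 8-mer (which stands for itself and its reverse complement) is scored by the PBM enrichment score (E-score), a modified Wilcoxon-Mann-Whitney statistic from -0.5 to +0.5, computed with the Universal PBM Analysis Suite. Scale: above 0.35 generally sequence-specific binding.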

| Sequence | PBM E-score |
| --- | --- |
| CACTTTGC | -0.0521 |
| ATGAACCC | -0.213 |
| TATGTCCA | -0.051 |
| GCAGCAAC | -0.0105 |
| AGCGCTGG | -0.207 |
| AGGCCGAT | -0.137 |
| AATCCATT | 0.0189 |
| AACTTCCA | -0.117 |
| CAATTTCC | 0.0439 |
| ATACATCC | 0.00188 |
| GATGCAGC | -0.0324 |
| CAACTAGG | -0.174 |
| AACTTGGG | -0.102 |
| GACCGCCA | -0.0369 |
| AAGCTCGC | 0.297 |
| CGTGAGTA | -0.0693 |
| ATGATCTC | 0.0144 |
| CAACCGCA | 0.0228 |
| CACCACCC | -0.195 |
| CGTACTTA | 0.375 |
| CACTCTGG | -0.00447 |
| AGCCAATA | -0.0509 |
| AAATAGTC | -0.0637 |
| GAGAAGGC | -0.131 |
| CGAGGTGA | 0.218 |

| Sequence | PBM E-score |
| --- | --- |
| GGAATCTA | -0.286 |
| CACTCCCC | -0.0373 |
| CCATGGGG | -0.158 |
| CCGCGCAA | -0.028 |
| CGATTCGA | 0.165 |
| AATGCCCC | -0.129 |
| ACACTAGT | 0.0337 |
| ATGGCTTG | -0.0444 |
| ATTTACTG | -0.156 |
| TAACGCTA | 0.0626 |
| AATTGGGA | -0.0647 |
| AACCTGTG | -0.124 |
| AACAATGT | -0.12 |
| AGTAAATA | 0.00942 |
| AACGACCG | 0.407 |
| AGATAGCG | -0.0857 |
| ATCTCTGC | -0.069 |
| AGGTTGTC | -0.185 |
| GTTTGCAA | 0.206 |
| CGACGCTC | 0.339 |
| CTGCACAC | -0.334 |
| ACTCAAGA | 0.0179 |
| AAGGCCTC | -0.0464 |
| ACGCTGTC | 0.0124 |
| ATATTTTC | 0.137 |

| Sequence | PBM E-score |
| --- | --- |
| CCTAGTCG | -0.108 |
| CTACGAGC | 0.413 |
| CTGGGCCC | -0.253 |
| ATTCCCCC | -0.331 |
| ATCTCGTG | 0.193 |
| TGGTTTAA | -0.178 |
| ATACGCAG | 0.26 |
| CACGCCCC | -0.116 |
| ATCACTCC | -0.0624 |
| GTGCAGTA | -0.0687 |
| GAGCTGGA | 0.0532 |
| GCCAACAC | 0.128 |
| CAATCTTC | 0.0321 |
| CCCGTACA | 0.368 |
| ACGCTTCT | -0.0189 |
| CGACTGAC | -0.0824 |
| GATAGCTA | -0.159 |
| GTACCAGA | 0.116 |
| CAAATATC | 0.0295 |
| CCTATGAC | -0.0706 |
| CGTGGTCC | -0.14 |
| AAAATGCT | -0.0509 |
| GGAGTTAA | -0.151 |
| ATCAGTGA | -0.255 |
| CGATGTCC | 0.0399 |

| Sequence | PBM E-score |
| --- | --- |
| CTGGCGAA | -0.106 |
| CCACAGGG | -0.107 |
| AAGTCGAG | -0.113 |
| AGAAGGTA | -0.0231 |
| AGTTGAGC | -0.0193 |
| GAAAACTC | -0.163 |
| ATTCGTTC | 0.432 |
| AGAAGGAC | -0.242 |
| CTGAGATC | -0.134 |
| ATCTGAGC | 0.0659 |
| GTTTAGAA | 0.222 |
| GTTCATTA | 0.135 |
| GGCCCGCC | -0.217 |
| CAGTCTTA | -0.0489 |
| CATTGCTC | 0.0235 |
| GAAAATAA | 0.0123 |
| AACTAAGC | 0.101 |
| GAGACCCA | -0.17 |
| ACCAGGTG | -0.199 |
| AAGTTGGG | -0.166 |
| CAGGGAGA | -0.279 |
| ACGACGGA | 0.388 |
| TACCTCTA | -0.0643 |
| CTCCGAGA | 0.103 |
| ATTTCGCG | 0.179 |

| Sequence | PBM E-score |
| --- | --- |
| GGAAACTA | -0.034 |
| AACTCTGC | -0.273 |
| CGAGGCAG | 0.232 |
| ATTTCAAC | -0.0958 |
| TCATGCGA | 0.205 |
| GAAATCAA | -0.186 |
| CAGTTCGC | 0.0691 |
| AATAAAGC | 0.0906 |
| CATATTGG | 0.113 |
| CTTGGCGC | -0.147 |
| CGATAGAA | 0.149 |
| ACCGGAGG | -0.174 |
| AGACCCCA | -0.246 |
| ACAGAGGA | -0.0592 |
| TGAGCCCA | -0.0901 |
| ATGAGACG | -0.112 |
| ACGGATCG | 0.247 |
| AGGATCGG | -0.0515 |
| AGACCCGC | -0.00174 |
| TAAATCAA | 0.115 |
| GATCAGCA | -0.0245 |
| CGCGTCTA | -0.0107 |
| AGCAACAG | -0.058 |
| GCTCCGGA | 0.169 |
| ACGGTCTA | 0.167 |

| Sequence | PBM E-score |
| --- | --- |
| GCACGGAC | -0.0452 |
| ACGTATTG | 0.22 |
| TGCTTACA | -0.0902 |
| CATTACTA | 9e-05 |
| ATACGCCC | 0.116 |
| GAGGGGGC | -0.198 |
| CAAGCAGC | -0.0986 |
| ATCCACGA | 0.0369 |
| AGGTTCTA | -0.0822 |
| CTGACACA | -0.298 |
| CACTGTAA | -0.0272 |
| ACAAGAGT | -0.107 |
| ATAAGAAG | 0.0417 |
| ATGTTCAG | -0.297 |
| AATTGTCT | -0.0316 |
| TACCGATA | 0.245 |
| CAATTTTA | 0.121 |
| AGGGTTGG | -0.0747 |
| GCGGACAC | -0.0171 |
| GCCTATAA | -0.00832 |
| AACCCAGC | -0.207 |
| GCCTCAGA | -0.0532 |
| CGAACTCC | 0.184 |
| CAACCCCG | -0.214 |
| AAAGCTGG | -0.148 |

| Sequence | PBM E-score |
| --- | --- |
| AGAATTTG | -0.0454 |
| GTGTCAAC | -0.212 |
| GTAGGAAA | -0.0658 |
| ATATATAC | 0.299 |
| AGCTCCCG | -0.104 |
| CATTCAAA | 0.0727 |
| GCTCCGTA | 0.351 |
| CACAGTCG | 0.063 |
| ATGCAACA | 0.0718 |
| AACCAGGG | -0.107 |
| TATATCCA | 0.0372 |
| AAACTACC | -0.0939 |
| AGGAGTGA | -0.176 |
| ATTAATTA | -0.0178 |
| ACGTGGCC | -0.0664 |
| CGTTTCGA | 0.202 |
| CAACCCGA | 0.187 |
| ACATGGCA | 0.0044 |
| ACATTGTG | -0.094 |
| ACGCGAAG | 0.212 |
| AAACACGG | -0.0557 |
| AGAGGGGG | -0.0644 |
